Measurements: the supplement of paper PMC4604168 (melanoma cell lines)
The other results are listed elsewhere or left out. Many values rest on one well or one pass, so single values are uncertain.

Each compound was assayed on WM3619 (assay: cell count relative to DMSO control; melanoma cells; higher = more viable cells). Details: library dose: low library concentration; 72 h.
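Note: cell number obtained by counting DAPI-stained nuclei in high-throughput microscope images with image analysis software, screen run in 1,536-well plates.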

Structure (SMILES)	cell count [%]
NC(=O)Nc1cc(-c2cccc(F)c2)sc1C(=O)N[C@H]1CCCNC1 + CC(C)CCN1c2nc(Nc3cc(F)c(O)c(F)c3)ncc2N(C)C(=O)C1C [BID1870] (first compound 0.02 µM, partner dose 0.2 µM)	47.4
CN(C)S(=O)(=O)c1ccc2c(c1)/C(=C/c1cc3c([nH]1)CCCC3)C(=O)N2 + O=C(O)c1ccc(-c2c[nH]c3ncc(-c4ccccc4)cc23)cc1C1CCCC1 [GSK650394] (first compound 0.4 µM, partner dose 0.16 µM)	117
Cc1nc(Nc2ncc(C(=O)Nc3c(C)cccc3Cl)s2)cc(N2CCN(CCO)CC2)n1 [dasatanib] + O=C(Nc1cccc(Cl)c1)Nc1ncc(CCNc2ncnc3ccsc23)s1 [SNS314] (first compound 0.004 µM, partner dose 0.0008 µM)	92.5
CN(C)S(=O)(=O)c1ccc2c(c1)/C(=C/c1cc3c([nH]1)CCCC3)C(=O)N2 + COc1cc2ncnc(Nc3ccc(Oc4ccccc4)cc3)c2cc1OC [SrcI1] (first compound 0.4 µM, partner dose 2 µM)	94.2
C=CCn1c(=O)c2cnc(Nc3ccc(N4CCN(C)CC4)cc3)nc2n1-c1cccc(C(C)(C)O)n1 + N#Cc1c(O)c2c(-c3ccc(-c4ccccc4O)cc3)csc2[nH]c1=O [A769662] (first compound 0.02 µM, partner dose 2 µM)	71.1
CN(C)S(=O)(=O)c1ccc2c(c1)/C(=C/c1cc3c([nH]1)CCCC3)C(=O)N2 + Cn1cc(/C=C2\C(=O)Nc3cccnc32)c2ccccc21 [GW441756] (first compound 0.4 µM, partner dose 0.4 µM)	124
NCC(=O)Nc1ccc(-n2nc(C(F)(F)F)cc2-c2ccc3c(ccc4ccccc43)c2)cc1 + CN(NC(=O)CC(=O)NN(C)C(=S)c1ccccc1)C(=S)c1ccccc1 [STA4783] (first compound 1 µM, partner dose 0.006 µM)	53.8
OCCn1cc(-c2cnc3nnn(Cc4ccc5ncccc5c4)c3n2)cn1 + COc1ccc(-c2ccc3c(N4CCOCC4)nc(N4C[C@@H](C)O[C@@H](C)C4)nc3n2)cc1CO [KU0063794] (first compound 1 µM, partner dose 0.02 µM)	105
Cc1nc(Nc2ncc(C(=O)Nc3c(C)cccc3Cl)s2)cc(N2CCN(CCO)CC2)n1 [dasatanib] + Cc1ccc(NC(=O)c2cccc(N(C)C)c2)cc1NC(=O)c1ccc(O)cc1 [ZM336372] (first compound 0.004 µM, partner dose 2 µM)	103
CO[C@@H]1[C@H](N(C)C(=O)c2ccccc2)C[C@H]2O[C@]1(C)n1c3ccccc3c3c4c(c5c6ccccc6n2c5c31)C(=O)NC4 [Midostaurin] + CC(C)(C)c1cnc(CSc2cnc(NC(=O)C3CCNCC3)s2)o1 [SNS-032] (first compound 0.08 µM, partner dose 0.01 µM)	93.9
C[C@]1(c2nc3c(C(N)=O)cccc3[nH]2)CCCN1 [Veliparib] + COc1ccc(-c2ccc3c(N4CCOCC4)nc(N4C[C@@H](C)O[C@@H](C)C4)nc3n2)cc1CO [KU0063794] (first compound 1.4 µM, partner dose 0.02 µM)	86
C[C@]1(c2nc3c(C(N)=O)cccc3[nH]2)CCCN1 [Veliparib] + NCC(=O)Nc1ccc(-n2nc(C(F)(F)F)cc2-c2ccc3c(ccc4ccccc43)c2)cc1 [OSU03012] (first compound 1.4 µM, partner dose 1 µM)	89
Cc1nc(Nc2ncc(C(=O)Nc3c(C)cccc3Cl)s2)cc(N2CCN(CCO)CC2)n1 [dasatanib] + COc1ccc(-c2ccc3c(N4CCOCC4)nc(N4C[C@@H](C)O[C@@H](C)C4)nc3n2)cc1CO [KU0063794] (first compound 0.004 µM, partner dose 0.02 µM)	74.1
Cc1nc(Nc2ncc(C(=O)Nc3c(C)cccc3Cl)s2)cc(N2CCN(CCO)CC2)n1 [dasatanib] + O=S(=O)(c1ccccc1)N(CC(F)(F)F)c1ccc(C(O)(C(F)(F)F)C(F)(F)F)cc1 [T0901317] (first compound 0.004 µM, partner dose 1.4 µM)	98.9
NC(=O)Nc1cc(-c2cccc(F)c2)sc1C(=O)N[C@H]1CCCNC1 + COc1ccc(COc2ccc(Cc3cnc(N)nc3N)cc2OC)cc1 [GW2580] (first compound 0.02 µM, partner dose 1 µM)	55.7
NC(=O)Nc1cc(-c2cccc(F)c2)sc1C(=O)N[C@H]1CCCNC1 + O=C(Nc1ccccc1)c1cc([N+](=O)[O-])ccc1Cl [GW9662] (first compound 0.02 µM, partner dose 2 µM)	80.3

Structure (SMILES)	cell count [%]
C[C@]1(c2nc3c(C(N)=O)cccc3[nH]2)CCCN1 [Veliparib] + CCc1ccc(CCOc2ccc(CC3SC(=O)NC3=O)cc2)nc1 [pioglitazone] (first compound 1.4 µM, partner dose 2 µM)	81.3
OCCn1cc(-c2cnc3nnn(Cc4ccc5ncccc5c4)c3n2)cn1 + COc1ccc2c(c1)CCC1C2CCC2(C)C(NCCCCCCN3C(=O)C=CC3=O)CCC12 [U73122] (first compound 1 µM, partner dose 0.4 µM)	113
Cc1nc(Nc2ncc(C(=O)Nc3c(C)cccc3Cl)s2)cc(N2CCN(CCO)CC2)n1 [dasatanib] + O=C(O)C(=O)Nc1sc2c(c1C(=O)O)CCNC2 [TCS401] (first compound 0.004 µM, partner dose 1.66667 µM)	69.8
NCC(=O)Nc1ccc(-n2nc(C(F)(F)F)cc2-c2ccc3c(ccc4ccccc43)c2)cc1 + O=C1NC(=O)/C(=C/c2ccc(-c3ccc(F)cc3O)o2)S1 [AS252424] (first compound 1 µM, partner dose 1 µM)	112
CO[C@@H]1[C@H](N(C)C(=O)c2ccccc2)C[C@H]2O[C@]1(C)n1c3ccccc3c3c4c(c5c6ccccc6n2c5c31)C(=O)NC4 [Midostaurin] + CN(C)S(=O)(=O)c1ccc2c(c1)/C(=C/c1cc3c([nH]1)CCCC3)C(=O)N2 [SU6656] (first compound 0.08 µM, partner dose 0.4 µM)	96.4
C[C@]1(c2nc3c(C(N)=O)cccc3[nH]2)CCCN1 [Veliparib] + O=C(O)C(=O)Nc1sc2c(c1C(=O)O)CCNC2 [TCS401] (first compound 1.4 µM, partner dose 1.66667 µM)	91.5
CO[C@@H]1[C@H](N(C)C(=O)c2ccccc2)C[C@H]2O[C@]1(C)n1c3ccccc3c3c4c(c5c6ccccc6n2c5c31)C(=O)NC4 [Midostaurin] + COc1cc2ncnc(Nc3ccc(Oc4ccccc4)cc3)c2cc1OC [SrcI1] (first compound 0.08 µM, partner dose 2 µM)	93
C[C@]1(c2nc3c(C(N)=O)cccc3[nH]2)CCCN1 [Veliparib] + Oc1cc(-c2nc(-c3ccccc3)[nH]c2-c2ccncc2)ccc1Cl [L779450] (first compound 1.4 µM, partner dose 0.2 µM)	70.7
CO[C@@H]1[C@H](N(C)C(=O)c2ccccc2)C[C@H]2O[C@]1(C)n1c3ccccc3c3c4c(c5c6ccccc6n2c5c31)C(=O)NC4 [Midostaurin] + Cc1cc(N2CCOCC2)cc2[nH]c(-c3c(NC[C@@H](O)c4cccc(Cl)c4)cc[nH]c3=O)nc12 [BMS536924] (first compound 0.08 µM, partner dose 0.2 µM)	98.6
C[C@]1(c2nc3c(C(N)=O)cccc3[nH]2)CCCN1 [Veliparib] + O=C(CCCCCCC(=O)Nc1ccccc1)NO [vorinostat] (first compound 1.4 µM, partner dose 0.08 µM)	108
Cc1nc(Nc2ncc(C(=O)Nc3c(C)cccc3Cl)s2)cc(N2CCN(CCO)CC2)n1 [dasatanib] + Cc1cc([N+](=O)[O-])ccc1NS(=O)(=O)c1cc(Cl)ccc1Cl [FH535] (first compound 0.004 µM, partner dose 1 µM)	91.6
CO[C@@H]1[C@H](N(C)C(=O)c2ccccc2)C[C@H]2O[C@]1(C)n1c3ccccc3c3c4c(c5c6ccccc6n2c5c31)C(=O)NC4 [Midostaurin] + O=C(O)C(=O)Nc1sc2c(c1C(=O)O)CCNC2 [TCS401] (first compound 0.08 µM, partner dose 1.66667 µM)	108
C[C@]1(c2nc3c(C(N)=O)cccc3[nH]2)CCCN1 [Veliparib] + OCCn1cc(-c2cnc3nnn(Cc4ccc5ncccc5c4)c3n2)cn1 [PF04217903] (first compound 1.4 µM, partner dose 1 µM)	94.2
CO[C@@H]1[C@H](N(C)C(=O)c2ccccc2)C[C@H]2O[C@]1(C)n1c3ccccc3c3c4c(c5c6ccccc6n2c5c31)C(=O)NC4 [Midostaurin] + CN(NC(=O)CC(=O)NN(C)C(=S)c1ccccc1)C(=S)c1ccccc1 [STA4783] (first compound 0.08 µM, partner dose 0.006 µM)	86.7
NC(=O)Nc1cc(-c2cccc(F)c2)sc1C(=O)N[C@H]1CCCNC1 + CCc1ccc(CCOc2ccc(CC3SC(=O)NC3=O)cc2)nc1 [pioglitazone] (first compound 0.02 µM, partner dose 2 µM)	64.2
